Source: PubChem BioAssay AID1508624 (National Center for Advancing Translational Sciences (NCATS), 2021)
The campaign covered roughly 48,000 compounds. About 120 (0.25%) were called active. Inconclusive results (about 4%) are left out. The call rests on the fitted dose curve; in most records, active means well fitted activation curve with a large enough effect; inconclusive means small, poorly fitted or top-dose-only effect, or another doubt; inactive means no such curve, though single readings can be large or run the other way. The list shows a part of the results.

Test: Primary qHTS for Identification of Small Molecule Activators of Huntingtin-Antisense Promoter Activity; further: nearly all actives have a fitted effect of over 55% in size
Conditions: HEK293 HTT-AS promoter firefly luciferase reporter, 24 h; series mostly up to 57.5 µM; activity change, positive = activation: at the top concentration
Procedure, shortened: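 Firefly luciferase readout (Dual-Glo, 10 min RT) after 24 h, 37 °C compound exposure (final up to 57.5 uM) of HEK293 reporter cells cultured 24 h beforehand; PTC124 at 50 uM final as control inhibitor; activity scaled vehicle 0%, zero RLU -100%.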

Activity change, positive = activation, inactive:
Cc1cc(Br)ccc1NC(=O)Cn1cnc2sc(C)c(S(=O)(=O)N3CCN(C)CC3)c2c1=O 15%
COC(=O)c1sc2cccc(F)c2c1S(=O)(=O)Nc1ccc(N(C)C)cc1 -19.6%
CC1=C(C(=O)NCc2cccc(Br)c2)C2(CCCCC2)OC1=O -24.4%
CCCCOC(=O)/C(C#N)=C/c1ccc(-c2cccc(C(F)(F)F)c2)o1 -2.78%
CCOc1ccc(-c2nonc2NC(=O)c2ccco2)cc1 -24.8%
CCOc1ccc(NC(=O)CSc2nc3c(oc4ccccc43)c(=O)n2-c2cc(C)cc(C)c2)cc1 -8.55%
COc1cc(/C=C/c2nc(C#N)c(N3CCCCC3)o2)cc(OC)c1OC -14.1%
Cc1ccc(C(=O)Nc2c(-c3ccccc3)nc3ccccn23)cc1 -9.43%
Cc1nnc(N2CCC(C(=O)Nc3ccc(F)cc3)CC2)c2nn(-c3ccc(Cl)cc3)c(C)c12 -24.9%
Cc1ccc(C2c3[nH]c4ccccc4c3CCN2C(=O)c2ccccc2Br)cc1 (configuration not stated) -33.9%
Cc1nn(-c2ccc(F)cc2)c(-n2cccc2)c1C(=O)N1CCN(c2ccccc2)CC1 -22.6%
CCOc1ccc(Cn2nnc(C(=O)Nc3cccc(SC)c3)c2N)cc1 6.13%
CCCN(CCC)C(=O)Cn1c(=O)n(-c2ccc(C)c(C)c2)c(=O)c2c3c(sc21)CCCCC3 -6.6%
CC1CCC(NC(=O)CCc2cn(Cc3ccccc3Cl)c3ccccc23)CC1 (configuration not stated) -25.7%
Cc1ncc(CO)c2c1Oc1nc(-c3ccc(F)cc3)nc(SCC(=O)N3CCCCC3)c1C2 -11.5%
Cc1ccc(CN2C(=O)N(c3ccc(F)cc3)C(=O)C2CC(=O)Nc2ccc(Cl)cc2)cc1 (configuration not stated) -50%
Cc1ccc(NC(=O)CSc2nnc(-c3cc4occc4n3C)n2-c2ccccc2C)c(Cl)c1 -10.3%
Cc1ccc(C)c(Cn2c3ccccc3c3cnn(CC(=O)NC4CCC(C)CC4)c(=O)c32)c1 (configuration not stated) 16.9%
O=C(NCCc1ccccc1)C1CCN(c2ncnc3c2nc2n3CCCCC2)CC1 8.51%
COc1ccc(NC(=O)CSC2=Nc3ccccc3C3=NC(CCC(=O)NCc4cccs4)C(=O)N23)cc1 (configuration not stated) -20.9%
COc1ccccc1NC(=O)CCn1nc(-c2ccccc2OC)c2c(C)cc(C)nc21 -31.5%
Cc1ccccc1NC(=O)Nc1nnc(N2CCCCCC2)s1 -8.83%
CCC(=O)N1CCc2cc(Br)cc(S(=O)(=O)CCC(=O)N3CCN(c4ccc(F)cc4)CC3)c21 5.84%
Cc1ccccc1OCC(=O)OCc1cc(=O)n2nc(C3CC3)sc2n1 4.99%
Cc1cc(C)c(C)c(OCC(=O)Nc2ccc(S(=O)(=O)Nc3nc(C)cc(C)n3)cc2)c1 3.61%
O=C(CSC1=Nc2ccccc2N=C(c2ccc(F)cc2)C1)Nc1cccc(C(F)(F)F)c1 -41.1%
COc1ccccc1OCC(O)COC(N)=O (configuration not stated)
CCOC(=O)C1CCCN(C(=O)C2CCN(S(=O)(=O)c3c(C)noc3/C=C/c3ccccc3F)CC2)C1 (configuration not stated) 16.2%
COc1ccc(CC(=O)NCCc2sc3nc(-c4ccc(OC)cc4)nn3c2C)cc1 -0.345%
Cc1cccc(-c2noc(CN(C3CCCCC3)S(=O)(=O)c3ccc(F)cc3)n2)c1 -17%
CCC(C(=O)OCc1cc(=O)n2nc(C)sc2n1)c1ccccc1 (configuration not stated) -17.7%
COc1ccc2c(c1)-c1nc(NC(=O)c3ccc(OC)c(Br)c3)sc1CC2 -9.84%
COc1ccc(OC)c(NC(=O)c2c(NCc3sccc3C)sc3c2CCCCC3)c1 8.13%
COc1ccc(CNC(=O)CN(c2ccc(C(C)C)cc2)S(=O)(=O)c2c(C)nn(C)c2C)cc1 -23.3%
COc1ccc(NC(=O)CSc2nc3ccccc3nc2N2CCC(C)CC2)cc1 -16.5%
Nc1c2c(nc3ccccc13)CCCC2O (configuration not stated) -1.48%
CN(C)C(=O)Oc1ccc[n+](C)c1 1.65%
COc1ccc2c(Sc3ccc(C)cc3)c(C(=O)NCc3ccc(F)cc3)[nH]c2c1 16.4%
COc1ccccc1NC(=O)C1=C(C)Nc2nc(CCCO)nn2C1c1cccc(O)c1 (configuration not stated) -11.8%
Nc1ccn([C@@H]2CS[C@H](CO)O2)c(=O)n1 -7.13% [at 116 µM, percent change from vehicle, -100% = no light]
Cc1ccc(S(=O)(=O)N2CCCc3cc(NS(=O)(=O)c4cc(F)ccc4F)ccc32)cc1 -52.3%
O=C(CCCn1c(=O)c2ccccc2n(Cc2cccc(Cl)c2)c1=O)NCCc1ccc(Cl)cc1 -33.5%
O=C(Nc1cccc(NC(=O)c2ccccc2F)c1)c1ccccc1 -2.48%
O=C(Cn1cc(S(=O)(=O)N2CCCC2)c(S(=O)(=O)N2CCCC2)c1)Nc1ccccc1 -5.09%
Cn1c(=O)c(=O)n(C)c2cc(S(=O)(=O)N3CCN(c4ccc(F)cc4)CC3)ccc21 -11.8%
COc1cc(C2CC(=O)c3cnc(N4CCN(CCO)CC4)nc3C2)cc(OC)c1OC (configuration not stated) -18.4%
CCCC(=O)Nc1cc(C(=O)NCc2ccccc2)ccc1S(=O)(=O)c1ccc(Cl)cc1 -7.01%
CCOC(=O)c1ccc(N2C(=O)c3n[nH]c(-c4ccco4)c3C2c2ccc(OCC)cc2)cc1 (configuration not stated) -65.7%
CC(C)c1ccc(NC(=O)CC2NCCNC2=O)cc1 (configuration not stated) 7.8%
O=C(CSc1nc2c(oc3ccccc32)c(=O)n1-c1ccccc1)Nc1ccccc1F -37.7%
CCCN(CCC)CCCNC(=O)c1cn(CC)c2ccc(S(=O)(=O)N(C)C3CCCCC3)cc2c1=O -8.19%
CCc1ccc(OCc2cc(=O)n3c4c(sc3n2)CCCC4)cc1 12.2%
COc1cccc(N2CCN(C(=O)C3Cc4ccccc4N3C(C)=O)CC2)c1 (configuration not stated) -12.6%
O=C(C1CCC1)N1CCCc2cc(S(=O)(=O)N3CCN(c4ccccc4)CC3)ccc21 -14.1%
CCOC(=O)c1c(C)[nH]c(CCC(=O)Nc2c(C)cccc2CC)c1C -28.6%
CCNc1ncnc2c1nnn2C 1.78%
Cc1cccc(-c2nc3ccccc3n2Cc2ccccc2)c1 -20.2%
CCC(=O)Nc1ccccc1-c1nc2ccccc2n(CC(=O)c2ccc(Cl)cc2)c1=O -0.0204%
CCOC(=O)N1CCc2c(sc(NCc3cccc(F)c3)c2C(=O)Nc2ccc(OC)cc2OC)C1 -91.6%
Cc1ccc(S(=O)(=O)c2nnn3c2nc(NC(C)C)c2sccc23)cc1 -35.3%
CCNC(=O)c1ccc(-n2c(-c3ccccc3)cc3c2CCCCC3)cc1 4.55%
Cc1c(C(=O)Nc2cccc(C(F)(F)F)c2)oc2ccc(S(=O)(=O)N(C)C3CCCCC3)cc12 -13.7%
O=C(CC1C(=O)N(c2ccccc2)C(=O)N1CCc1cccs1)Nc1ccc(Cl)cc1 (configuration not stated) -18.1%
COc1ccc(OC)c(NC(=O)[C@H](Cc2ccccc2)N2Cc3ccccc3C2=O)c1 -6.75%
COc1cccc(CNC(=O)CCc2c(C)nn(-c3ccc(N4CCOCC4)nn3)c2C)c1 3.73%
CC(=O)Nc1nonc1-c1nnc(SCc2ccc(C)cc2)n1C -0.877%
CCOC(=O)CNc1ncnc2c1nnn2C 7.5%
CCCNC(=O)c1c2c(nc3ccccc13)C(=O)N(C1CCCCC1)C2 4.43%
CCCc1cc(=O)[nH]c2nnc(SCC(=O)Nc3cccc(C)c3)n12 -17.5%
Cc1cccn2c(=O)c(/C=C(\C#N)c3nc4ccccc4n3C)c(Oc3ccc(Cl)cc3)nc12 -6.04%
COC(=O)c1c(NC(=O)COc2ccc(OC)cc2)sc2c1CCC(C)C2 (configuration not stated) -35.6%
CCCc1cc(=O)[nH]c2nnc(SCCC(C)C)n12 -4.52%
COc1cc(NC(=O)CSc2ccc(-c3sc(-c4ccccc4)nc3C)nn2)cc(OC)c1 -1.42%
COc1ccc(CN2CCN(S(=O)(=O)c3ccccc3)CC2)c(OC)c1 -19.5%
CCCn1cc(S(=O)(=O)c2ccc(OC)cc2)c(=O)c2cc(F)c(N3CCCCCC3)cc21 -7.49%
CC(C)Oc1ccc(CNC(=O)C2CCCN(S(=O)(=O)c3ccc4c(ccn4C)c3)C2)cc1 (configuration not stated) -34.4%
CCn1cc(S(=O)(=O)c2ccc(C)cc2C)c(=O)c2cc(F)c(N3CCCC3)cc21 -23.8%
Cc1ccc(CSc2nnc3[nH]c(=O)cc(C)n23)cc1 4.36%
NC(=O)NNc1ccccc1 -11.5%
CN1Cc2c(N)cccc2C(c2ccccc2)C1 (configuration not stated) -2.29%
CCCN1C(=O)C2(c3ccccc31)c1c(oc3cc(C)c(C)cc3c1=O)C(=O)N2CCCOC (configuration not stated) -8.06%
CCC(=O)N1c2ccccc2CC1C(=O)NCCc1ccc(OC)cc1OC (configuration not stated) -8.17%
CCc1cccc(-n2c(=O)c3cccnc3n2CC(=O)Nc2ccccc2C(=O)OC)c1 -5.22%
CCOc1ccc(NC(=O)c2ccc3nc(Cc4ccccc4)oc3c2)cc1 15.4%
Cc1ccc2oc(C(=O)Nc3sc4c(c3C(=O)NCc3ccccc3)CCCC4)cc(=O)c2c1 7.08% [at 11.5 µM, percent change from vehicle, -100% = no light]
CCC1CN(C(=O)Nc2cc(OC)cc(OC)c2)c2ccccc2S1 (configuration not stated) -26.2%
Cc1ccccc1NC(=O)N1CCC(CN2CCCC2)CC1 -7.52%
Cc1ccc(OCC(=O)OCc2cc(=O)n3c(C)csc3n2)cc1 -15.1%
COc1ccc(-n2nc3cc(C)c(NC(=O)c4ccc(C)cc4C)cc3n2)cc1Cl 12%
Nc1ccc(C(=O)OCC(O)CO)cc1 (configuration not stated) -2.52%
CCC(=O)N1CCc2cc(S(=O)(=O)NC(Cc3ccccc3)C(=O)NCc3ccc(F)cc3)ccc21 (configuration not stated) 0.877%
CC1C(=O)N2CCCc3cc(S(=O)(=O)Nc4ccc(Br)cc4F)cc1c32 (configuration not stated) -14.6%
CCOc1cc(-c2nnc(SCC(=O)NCc3ccc(C)cc3)nc2-c2ccc(OC)c(OCC)c2)ccc1OC 9.08%
COc1cccc(NC(=O)C2CCCN2S(=O)(=O)c2ccc3c(c2)n(C)c(=O)c(=O)n3C)c1 (configuration not stated) -12.6%
COc1ccc(OC)c(NC(=O)c2nc(SCc3ccccc3F)ncc2Cl)c1 -1.61%
O=C(Cn1c(=O)oc2cc(S(=O)(=O)NCc3ccccc3)ccc21)N(CCO)Cc1ccccc1 -17.8%
Cc1nc2c(C(=O)NCCC(C)C)cnn2c(C)c1Cc1c(F)cccc1Cl 9.25%
